Measurements published in the supplement of paper PMC3334620.
Over roughly 33,000 sequences, “E-score (-0.5 to 0.5)” has its median near -0.032; the highest 2% begin near 0.36. Some of the results follow.

biological target: T1, Sko1 (UniProt Q02100); test: PBM E-score (8-mer binding enrichment) (E-score (-0.5 to 0.5)); higher = stronger / more preferred TF binding; most listed sequences are background and not binding sites; conditions: protein concentration: 200 nM; construct: GST-full length
T1 sequence: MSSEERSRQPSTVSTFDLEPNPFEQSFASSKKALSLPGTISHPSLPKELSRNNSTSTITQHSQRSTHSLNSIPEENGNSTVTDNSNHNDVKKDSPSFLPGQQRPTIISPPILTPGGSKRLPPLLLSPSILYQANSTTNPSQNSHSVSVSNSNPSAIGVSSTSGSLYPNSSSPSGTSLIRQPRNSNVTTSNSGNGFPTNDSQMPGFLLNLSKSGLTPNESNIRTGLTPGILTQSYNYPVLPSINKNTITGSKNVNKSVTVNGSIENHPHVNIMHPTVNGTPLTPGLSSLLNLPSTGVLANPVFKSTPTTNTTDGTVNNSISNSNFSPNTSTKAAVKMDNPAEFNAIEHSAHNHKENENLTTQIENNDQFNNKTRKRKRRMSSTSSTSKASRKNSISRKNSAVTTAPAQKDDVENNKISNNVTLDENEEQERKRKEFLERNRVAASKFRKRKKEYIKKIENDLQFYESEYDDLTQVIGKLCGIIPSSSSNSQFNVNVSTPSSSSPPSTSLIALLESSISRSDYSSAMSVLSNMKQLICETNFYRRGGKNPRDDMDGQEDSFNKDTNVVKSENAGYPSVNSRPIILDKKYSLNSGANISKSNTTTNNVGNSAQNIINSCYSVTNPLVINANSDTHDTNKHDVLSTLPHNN
Method: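 Universal 'all 10-mer' protein binding microarrays (Agilent AMADID 015681) probed with GST-tagged S. cerevisiae TFs (full-length or DBD) made by in vitro transcription/translation (PURExpress), about 100-200 nM. Bound TF was detected with fluorescent anti-GST. Each ungapped 8-mer (which stands for itself and its reverse complement) is scored by the PBM enrichment score (E-score), a modified Wilcoxon-Mann-Whitney statistic from -0.5 to +0.5, computed with the Universal PBM Analysis Suite. Scale: above 0.35 generally sequence-specific binding.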

| Sequence | PBM E-score |
| --- | --- |
| ACTGATTC | 0.0353 |
| GAAATTCA | 0.0854 |
| GACATAAC | 0.202 |
| CACAGAGC | 0.0302 |
| AGATTTTG | 0.06 |
| AGTGTAGG | -0.0121 |
| ACTCAAGT | -0.00867 |
| GGGCTACA | -0.311 |
| TGCGGACA | -0.0412 |
| GCGCTTAC | 0.143 |
| AACAACAT | 0.0743 |
| CACCCGCA | -0.151 |
| CCTTAATC | -0.129 |
| CGCTGCTC | -0.254 |
| AAATTCGC | 0.177 |
| CCGACAGG | 0.00928 |
| ATCGCGTG | 0.242 |
| CAATACAG | -0.0302 |
| CTACAATC | 0.144 |
| CTTTGGAA | -0.0181 |
| CGGATATA | 0.15 |
| CAACGCCC | -0.239 |

| Sequence | PBM E-score |
| --- | --- |
| CGGCTTGA | -0.0312 |
| TAAACAAA | 0.119 |
| CCAGCACC | -0.324 |
| CCTTACCA | -0.026 |
| AATGTTAT | 0.0252 |
| ACCACCCC | -0.178 |
| ACTTAAAG | 0.0316 |
| CTGTTAAC | 0.0989 |
| CACCTCTA | -0.0273 |
| CGATCAGC | -0.111 |
| AAGGTTAG | -0.0927 |
| GGCCAGTA | -0.113 |
| AGATCCCG | -0.0957 |
| CGTATTTA | 0.419 |
| CAGGGCCC | -0.286 |
| ACTCTCAA | -0.00162 |
| AGGCTACA | -0.209 |
| GGCCTCCC | -0.336 |
| ACTCCCAT | -0.0603 |
| AGAATTCA | -0.00015 |
| CTTCTGGA | -0.187 |
| ACTGCAGT | -0.105 |

| Sequence | PBM E-score |
| --- | --- |
| TGCTTCCA | -0.067 |
| AGGGCCAG | -0.407 |
| ACACATTG | 0.0485 |
| ACGAACAT | 0.189 |
| CGCTGTAA | 0.0521 |
| ATTTTCGG | 0.0716 |
| ATTGACTG | -0.0166 |
| TTATACAA | 0.21 |
| CCGGGACG | -0.265 |
| CATCTCCA | -0.0921 |
| GGGATTAA | -0.0784 |
| ATAAGGAA | -0.11 |
| GTCATCTA | 0.353 |
| GACATGCC | -0.11 |
| AGAAATCT | 0.0372 |
| GTGTTGCA | 0.109 |
| AGCCCTAC | -0.00618 |
| CAATAGCG | 0.0227 |
| CTATTAAC | 0.108 |
| TGGGAGAA | -0.0868 |
| ACATCCGC | -0.124 |
| ATCAGCCG | -0.146 |

| Sequence | PBM E-score |
| --- | --- |
| ACTCCCAG | -0.212 |
| ACAGGATG | -0.0946 |
| CATCCGAC | -0.102 |
| ACAGGAGA | -0.0703 |
| CTCCGTGC | -0.255 |
| ACAGGGAC | -0.0907 |
| AGATAGAA | -0.0114 |
| ATCAACAG | 0.08 |
| TAAACCCA | 0.156 |
| CTTATCGA | 0.0311 |
| GGTATATA | 0.189 |
| AGCTCCAT | 0.0478 |
| ACACTATA | 0.127 |
| GTCTATAA | 0.142 |
| CATGAGGC | -0.204 |
| AAGATAGG | -0.131 |
| ATTGGGGC | -0.148 |
| AAGGCCCG | -0.32 |
| AGCATATG | -0.0821 |
| ACAAATCG | 0.0878 |
